Experiment [1] deals with T1, recombinant human IL-17A (human, UniProt Q16552 20-155, limits assumed, biotinylated with NHS-PEO4-biotin in the phage ELISA and in the SA-chip BIAcore runs; unmodified elsewhere). In words: cell-based or functional assay.
Experiment [2] deals with T1, recombinant human IL-17A. Put plainly: SPR BIAcore 3000, biotinylated IL-17A on SA chip, binder injected.
T1 sequence (Q16552 20-155 limits assumed): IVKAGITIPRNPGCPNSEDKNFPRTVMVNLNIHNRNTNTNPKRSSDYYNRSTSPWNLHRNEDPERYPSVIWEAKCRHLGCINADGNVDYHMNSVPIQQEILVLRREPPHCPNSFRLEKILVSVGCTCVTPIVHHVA

B1: clone E4 (designed binder)
chain: GVTLFVALYDYKAFWPGDISFHKGEKFQILRTSDGEWWVARSLTTGEEGYIPSNYVAPVDSIQ
notes: Fyn SH3-derived
As to B1, the “IC50 of inhibition of IL-17A induced IL-6 production in NHDF cells (IL-17A 50 ng/ml)” value with recombinant human IL-17A [1] is about 6 nM. Further, the dissociation constant Kd with recombinant human IL-17A [2] is 31 nM.

These data come from US20160368957A1 (COVAGEN, published 2016).
